# Laboratory results: the antibiotic and cytotoxicity screens of Wong et al. (2023)
# The other results are listed elsewhere or left out.
# Key:
# HSkMC = human skeletal muscle cells; assay: cytotoxicity call (relative viability < 0.9); conditions: 10 µM
# HepG2 = assay: cytotoxicity call (relative viability < 0.9); conditions: 10 µM
# S. aureus RN4220 = assay: growth inhibition call (relative growth <= 0.2); conditions: 50 µM
Compound,cytotoxicity call (HSkMC),cytotoxicity call (HepG2),growth inhibition call (S. aureus RN4220)
CC(C)NC(=O)Nc1ccc2c(c1)C(=O)N([C@@H](C)CO)C[C@@H](C)[C@@H](CN(C)S(=O)(=O)c1ccc(F)cc1)O2,inactive,inactive,inactive
CN1CCN(c2cc3c(cc2F)c(=O)c(C(=O)O)cn3-c2ccc(F)cc2)CC1.Cl,inactive,inactive,active
C[C@@H]1CCCCO[C@H](CN(C)Cc2ccc(C(=O)O)cc2)[C@H](C)CN([C@@H](C)CO)C(=O)c2cc(NC(=O)CCC(F)(F)F)ccc2O1,inactive,inactive,inactive
CCCN(C)C[C@H]1OCCCC[C@H](C)Oc2ccc(NC(=O)CCC(F)(F)F)cc2C(=O)N([C@H](C)CO)C[C@H]1C,inactive,inactive,inactive
C[C@H]1COC(=O)[C@@H](NC(=O)OCC2c3ccccc3-c3ccccc32)CC=CC[C@@H](CC(=O)NCCO)C(=O)N1,inactive,inactive,inactive
C[C@H](CO)N1C[C@H](C)[C@@H](CN(C)C(=O)CCCN(C)C)OCCCC[C@H](C)Oc2ccc(NC(=O)Nc3cccc4ccccc34)cc2C1=O,inactive,inactive,inactive
O=C(C[C@@H]1CC[C@@H]2[C@H](COC[C@H](O)CN2C(=O)Nc2ccc(C(F)(F)F)cc2)O1)NCc1ccncn1,inactive,inactive,inactive
COc1c(N2CCNC(C)C2)c(F)cc2c(=O)c(C(=O)O)cn(C3CC3)c12 (configuration not stated),inactive,active,active
CCO[C@@H]1OC(C(=O)N2CCOCC2)=C[C@H](c2coc3ccccc3c2=O)[C@H]1CCCOC(=O)NCCCCCC(=O)NO,inactive,inactive,inactive
CC[N+](C)(C)c1cccc(O)c1.[Cl-],inactive,inactive,inactive
O=C(C[C@H]1C[C@H]2c3cc(NC(=O)c4ccc5c(c4)OCO5)ccc3O[C@H]2[C@H](CO)O1)NCCc1ccccc1,inactive,inactive,inactive
CN1CCN(C(=O)C[C@H]2C=C[C@H](NS(=O)(=O)c3cccc(F)c3)[C@@H](CO)O2)CC1,inactive,inactive,inactive
COc1ccc(S(=O)(=O)Nc2ccc3c(c2)C(=O)N([C@@H](C)CO)C[C@H](C)[C@H](CN(C)C(=O)c2ccccc2)OCCCC[C@@H](C)O3)cc1,inactive,inactive,inactive
C[C@@H]1CCCCO[C@@H](CN(C)Cc2ccncc2)[C@H](C)CN([C@@H](C)CO)C(=O)c2cc(NC(=O)CCCCCC(=O)Nc3ccccc3N)ccc2O1,inactive,inactive,inactive
COc1ccc([C@@H]([C@H](Cc2ccccc2)OC(C)=O)N2C[C@@H](OC(C)=O)[C@@H]3C(=NO[C@H]3c3ccccc3)[C@@H]2Cc2ccccc2)cc1,inactive,inactive,inactive
O=C1NC2=C(C(=O)OC2)[C@H](c2ccccc2)N1,inactive,active,inactive
C[C@@H]1CCCCO[C@@H](CN(C)C(=O)NC2CCCCC2)[C@@H](C)CN([C@@H](C)CO)C(=O)c2cc(NC(=O)Nc3ccccc3)ccc2O1,inactive,inactive,inactive

Compound,cytotoxicity call (HSkMC),cytotoxicity call (HepG2),growth inhibition call (S. aureus RN4220)
Nc1nc(Cl)nc2c1ncn2[C@H]1C[C@@H](O)[C@@H](CO)O1,inactive,inactive,inactive
O=C(O)c1ccccc1O,inactive,inactive,inactive
COc1ccc(S(=O)(=O)Nc2ccc3c(c2)C(=O)N([C@H](C)CO)C[C@@H](C)[C@@H](CN(C)C(=O)CCC(F)(F)F)OCCCC[C@H](C)O3)cc1,inactive,inactive,inactive
C[C@@H]1CN([C@H](C)CO)C(=O)c2cccc(NC(=O)CCCCCC(=O)Nc3ccccc3N)c2O[C@@H]1CN(C)Cc1ccc(Cl)c(Cl)c1,inactive,inactive,inactive
C[C@@H]1CN([C@@H](C)CO)C(=O)c2cc(NC(=O)Nc3ccc4c(c3)OCO4)ccc2O[C@H]1CN(C)Cc1ccc(C(F)(F)F)cc1,active,inactive,inactive
COc1cccc(NC(=O)N(C)C[C@@H]2Oc3cc(C#CC4(O)CCCC4)ccc3S(=O)(=O)N([C@H](C)CO)C[C@H]2C)c1,inactive,inactive,inactive
CC1(C)C(=O)NCCN1C(=O)C1CC1,inactive,inactive,inactive
NS(=O)(=O)c1cc(C2(O)NC(=O)c3ccccc32)ccc1Cl (configuration not stated),inactive,inactive,inactive
NC(=O)[C@H]1CCN(c2ncnc(N)c2F)C[C@@H]1N1CCC[C@@H](Nc2cc(Cl)cc(C(F)(F)F)c2)C1=O,inactive,inactive,inactive
COc1ccc(S(=O)(=O)Nc2ccc3c(c2)C(=O)N([C@H](C)CO)C[C@@H](C)[C@H](CN(C)S(C)(=O)=O)O3)cc1,inactive,inactive,inactive
CN(C)CC(=O)N[C@@H]1C=C[C@H](CC(=O)NCCN2CCCCC2)O[C@@H]1CO,inactive,inactive,inactive
O=C1C2C=CC([C@H]3[C@@H]2C=CC(=O)[C@]32CO2)[C@@]12CO2 (some centres not stated),inactive,inactive,inactive
Cc1noc(C)c1S(=O)(=O)Nc1cccc2c1O[C@@H](CN(C)S(=O)(=O)c1ccccc1)[C@@H](C)CN([C@@H](C)CO)C2=O,inactive,inactive,inactive
NC(=O)c1cc2ccccc2oc1=O,inactive,inactive,inactive
C[C@H](CO)N1C[C@H](C)[C@H](CN(C)S(=O)(=O)c2cn(C)cn2)Oc2ccc(NS(=O)(=O)c3ccc(F)cc3)cc2CC1=O,inactive,inactive,inactive
CN1CCCCC[C@@H]1C(=O)O,inactive,inactive,inactive
COCC(=O)Nc1ccc2c(c1)C(=O)N(C)C[C@H](OC)[C@H](C)CN(C(=O)Cc1cccnc1)[C@@H](C)CO2,inactive,inactive,inactive
